From paper PMC4336329 (PLoS ONE, 2015) come the findings set out here.

Molecules are shown by their SMILES. Out of some 310,000 compounds screened, about 2,200 (0.71%) showed an effect of 50% or more. The effect is printed as a negative number. The list shows a part of the results.

The target of this assay is human ether-à-go-go-related gene (hERG) potassium channel (human, UniProt Q12809). In words: primary screen, population patch clamp on CHO cells stably expressing hERG.
Chain of human ether-à-go-go-related gene (hERG) potassium channel (Q12809 whole entry, looked up): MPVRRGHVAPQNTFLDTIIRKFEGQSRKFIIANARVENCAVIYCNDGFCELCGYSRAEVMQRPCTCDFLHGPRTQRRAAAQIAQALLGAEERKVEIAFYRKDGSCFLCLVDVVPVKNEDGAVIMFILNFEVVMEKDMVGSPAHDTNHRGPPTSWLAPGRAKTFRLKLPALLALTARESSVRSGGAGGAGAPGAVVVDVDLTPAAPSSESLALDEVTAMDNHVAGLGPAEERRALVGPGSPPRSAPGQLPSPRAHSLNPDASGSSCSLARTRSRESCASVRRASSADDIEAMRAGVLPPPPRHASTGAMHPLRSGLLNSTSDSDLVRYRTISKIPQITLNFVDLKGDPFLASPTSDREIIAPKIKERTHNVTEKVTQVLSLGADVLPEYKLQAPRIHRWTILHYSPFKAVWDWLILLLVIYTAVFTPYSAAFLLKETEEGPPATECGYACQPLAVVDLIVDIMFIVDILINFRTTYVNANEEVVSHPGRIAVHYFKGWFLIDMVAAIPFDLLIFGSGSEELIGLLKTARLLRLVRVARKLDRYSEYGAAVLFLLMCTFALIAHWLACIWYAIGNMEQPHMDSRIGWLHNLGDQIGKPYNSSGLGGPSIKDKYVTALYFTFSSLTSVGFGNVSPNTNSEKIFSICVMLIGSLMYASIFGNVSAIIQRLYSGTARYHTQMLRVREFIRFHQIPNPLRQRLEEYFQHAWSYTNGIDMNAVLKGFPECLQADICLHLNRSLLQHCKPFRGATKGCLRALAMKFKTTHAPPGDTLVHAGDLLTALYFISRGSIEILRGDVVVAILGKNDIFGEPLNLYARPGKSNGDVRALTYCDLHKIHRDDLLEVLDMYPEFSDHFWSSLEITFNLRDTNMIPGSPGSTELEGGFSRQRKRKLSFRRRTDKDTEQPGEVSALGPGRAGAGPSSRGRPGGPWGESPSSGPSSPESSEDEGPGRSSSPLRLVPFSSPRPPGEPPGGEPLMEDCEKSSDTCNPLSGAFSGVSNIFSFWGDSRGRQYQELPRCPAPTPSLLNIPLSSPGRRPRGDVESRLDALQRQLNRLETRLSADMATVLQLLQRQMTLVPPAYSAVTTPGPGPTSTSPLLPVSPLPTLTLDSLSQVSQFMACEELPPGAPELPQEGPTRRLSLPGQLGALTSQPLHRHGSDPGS
Consider `CC1CCCC/C1=N\NS(=O)(=O)c1ccc(Br)cc1` (stereo not shown), for which the “hERG current change (%, negative = inhibition) at 1uM” value stood at 6.85%.
Next, `CCOC(=O)c1cn[nH]c1N`: 10.1%; `COc1ccc(CCNC(=O)C2CC(=O)N(c3ccc(C)cc3)C2)cc1OC` (stereo not shown): 8.45%.
For `CCC(C)c1ccccc1N1CC(C(=O)NCCc2ccc(OC)c(OC)c2)CC1=O` (stereo not shown) the value was 8.81%; for `CC1=C(C(=O)NC2CCC(C)CC2)C2(CCC(C)CC2)OC1=O` (stereo not shown), 10.3%.
Next, `CCc1cccc2c(C(=O)Cn3nnc(-c4ccc(OC)c(OC)c4)n3)c[nH]c12`: 5.3%; `COc1ccc(C(=O)C2CCCN(C(=O)c3n[nH]c4c3CCCC4)C2)cc1OC` (stereo not shown): 19.2%.
On to `Cc1cc(C)c(N(C(=O)c2csnn2)C(C(=O)NC2CCCC2)c2ccncc2)c(C)c1` (stereo not shown), for which the “hERG current change (%, negative = inhibition) at 1uM” value amounted to 10.4%.
For `COc1ccc(CCC(=O)Nc2cc([N+](=O)[O-])ccc2OC)cc1` the value was 8.26%; for `CN1CCN(CC(=O)Nc2cc(S(=O)(=O)N3CCOCC3)ccc2Cl)CC1`, 15.2%; for `Cc1cc(C)cc(Oc2ccc(NC(=O)C3CC=CCC3C(=O)O)cc2)c1` (stereo not shown), 18.2%.
For `CC(=O)c1cccc(NC(=O)c2cnn3ccccc23)c1` the value was 6.99%; for `Cc1cc(C)c2c(-n3cccc3)n[nH]c2n1`, 12.1%; for `C#CC[N+]1(C)C2CCC1CC(O)C2.[Br-]` (stereo not shown), 9.88%.
For `Cc1ccc(C)c(N2CCN(C(=O)c3ccc(Cn4c(=O)[nH]c5ccccc5c4=O)cc3)CC2)c1` the value was 11.6%.
Turning to `CN(C)S(=O)(=O)c1cccc(NC(=O)COc2ccc(C(=O)c3ccccc3)cc2)c1`, the “hERG current change (%, negative = inhibition) at 1uM” value is listed as -6.39%.
For `COc1ncccc1C(=O)NCC(CC(=O)O)c1ccccc1` (stereo not shown) the value was 10.5%; for `CC1CC(C)CN(C(=O)Cc2c(C(=O)O)[nH]c3ccc(Cl)cc23)C1` (stereo not shown), 0.92%.
On to `CCCCNC(=O)C1CCC(CNS(=O)(=O)c2c(C)cc(C)cc2C)CC1` (stereo not shown), for which the “hERG current change (%, negative = inhibition) at 1uM” value is -13.4%.
Take `CC1(c2ccccc2Cl)NC(=O)N(CC(=O)NC(=O)NCc2ccco2)C1=O` (stereo not shown): the “hERG current change (%, negative = inhibition) at 1uM” value turned out to be 8.12%.
Next, `Cc1sc(-n2cccc2)c(C(=O)O)c1C`: 15%.
For `CCCN(Cc1nnc(-c2ccccc2Cl)o1)C(=O)c1cccc(S(=O)(=O)N2CCOCC2)c1` the value was 7.59%; for `Cc1ccc(-c2nn(-c3ccccc3)cc2/C=C2\SC(=S)N(CC(=O)O)C2=O)cc1`, 0.664%; for `CCCCN(CC)C(=O)C1CCCN(S(=O)(=O)c2cccc3nsnc23)C1` (stereo not shown), 13.4%.
For `CC(C)CCOc1cccc(OCC(=O)Nc2ccncc2)c1` the value was 19.1%; for `CCOP(=O)(OCC)C(NC(=O)c1ccc(OC)c(OC)c1)c1ccccc1` (stereo not shown), 12.2%.
In the case of `CCCC(=O)Nc1ccccc1NC(=O)c1ccc(OCC)c(OCC)c1`, the “hERG current change (%, negative = inhibition) at 1uM” value was determined as 10.7%.
In the case of `CCOC(=O)C1=C(CC)Nc2ccccc2N=C1NC(=O)c1oc2ccccc2c1C`, the “hERG current change (%, negative = inhibition) at 1uM” value is 13.3%.
`CCCOc1ccc(/C=C/C(=O)Nc2ccc([N+](=O)[O-])cc2C)cc1`: the “hERG current change (%, negative = inhibition) at 1uM” value is listed as 7.64%.
In the case of `CCOC(=O)c1nnn2c1nc(N(CC)CC)c1ccccc12`, the “hERG current change (%, negative = inhibition) at 1uM” value was found to be 6.76%.
For `CCOC(CCn1c(SCc2cccc([N+](=O)[O-])c2)nc2ccccc2c1=O)OCC` the value was -1.04%; for `Nc1ccccc1Nc1c(F)c(F)nc(F)c1Cl`, 17.2%; for `O=C(CSc1ccc(-c2ccc(Cl)cc2)nn1)Nc1ccc2c(c1)OCCO2`, 16.7%.
With `Cc1ccc(C(=O)NNC(=O)CSc2nnc3c(n2)[nH]c2ccc(C)cc23)cc1`, the “hERG current change (%, negative = inhibition) at 1uM” value is given as 6.24%.
With `CC(=O)NC(=O)c1cnn(-c2ccccc2)c1N`, the “hERG current change (%, negative = inhibition) at 1uM” value worked out at 10.1%.
For `O=C(c1cccc(S(=O)(=O)N2CCOCC2)c1)N1CCN(c2ccc(F)cc2)CC1` the value was -3.96%; for `C/C(N)=C(\C#N)C(=O)NCc1ccccn1`, 10.9%.
For `Cc1ccc(/C=C2\SC(=S)N(C(Cc3ccccc3)C(=O)O)C2=O)cc1` (stereo not shown) the value was 12.3%.
For `CCCOC(=O)C1=C(C)N(C)C(=O)NC1c1cc2c(cc1[N+](=O)[O-])OCO2` (stereo not shown) the value was 15.6%; for `Cc1ccc(NC(=O)c2ccc(Cl)c(NC(=O)c3cccs3)c2)cc1`, 5.42%; for `C[C@@H]1NC(=O)[C@H](CCC(N)=O)NC(=O)c2cc([N+](=O)[O-])cc(I)c2NCCC[C@@H](C(N)=O)NC1=O`, -10%.
Turning to `c1ccc2c(c1)nnn2-c1ncnc2sccc12`, the “hERG current change (%, negative = inhibition) at 1uM” value worked out at 4.42%.
Next, `COC(=O)C1=C(C)N(CCCC(=O)O)C(=O)NC1c1ccccc1OS(=O)(=O)c1ccc([N+](=O)[O-])cc1` (stereo not shown): 13.6%.
